Assay results as given in PubChem BioAssay AID504937 (National Center for Advancing Translational Sciences (NCATS), 2011).
About 20 (0.006%) of roughly 340,000 compounds were called active. The inconclusive results got no clear call from the source; some entries with a clear call stand among them for comparison. The call rests on the fitted dose curve; in most records, active means well fitted inhibition curve with a large enough effect; inconclusive means small, poorly fitted or top-dose-only effect; inactive means no such curve, though single readings can be large or run the other way. A potency beside an inconclusive call is a rough fit, not a confirmed value.

molecular target: Sphingomyelin phosphodiesterase (Homo sapiens) (UniProt P17405); assay: Inhibitors of Secretory Acid Sphingomyelinase (S-ASM): qHTS; settings: placental ASM, HMU-PC fluorogenic substrate (series up to 57.5 µM), 60 min; activity change, negative = inhibition: at the top concentration
UniProt P17405, sequence (P17405 whole entry, looked up): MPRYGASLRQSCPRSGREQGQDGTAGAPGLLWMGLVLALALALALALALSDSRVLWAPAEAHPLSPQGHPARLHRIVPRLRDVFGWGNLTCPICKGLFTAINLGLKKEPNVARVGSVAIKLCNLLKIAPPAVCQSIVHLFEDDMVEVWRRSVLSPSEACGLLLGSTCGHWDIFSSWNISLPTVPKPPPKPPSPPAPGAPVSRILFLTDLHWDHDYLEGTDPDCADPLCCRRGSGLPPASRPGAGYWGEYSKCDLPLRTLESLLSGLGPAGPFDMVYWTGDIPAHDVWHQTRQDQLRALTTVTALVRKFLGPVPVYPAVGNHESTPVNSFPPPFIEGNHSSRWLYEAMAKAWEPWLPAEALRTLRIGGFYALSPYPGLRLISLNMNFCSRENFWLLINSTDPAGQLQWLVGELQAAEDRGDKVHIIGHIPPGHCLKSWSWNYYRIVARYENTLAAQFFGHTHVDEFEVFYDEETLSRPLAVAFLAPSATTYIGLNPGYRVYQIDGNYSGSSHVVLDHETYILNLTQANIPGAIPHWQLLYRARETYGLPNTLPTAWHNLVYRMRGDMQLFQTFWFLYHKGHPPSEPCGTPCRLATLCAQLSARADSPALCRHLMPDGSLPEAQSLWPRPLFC
Text: Atherosclerosis is the underlying process for cardiovascular disease and thus is a major contributor to disease burden in the population. […] Thus, selective small molecule inhibitors of S-ASM should block LDL modification and reduce aortic LDL retention and may serve as new agents for the treatment of atherosclerosis. In a collaboration between National Heart, Lung, and Blood Institute and the NCGC a high-throughput amenable screen was developed to identify potent and selective small molecule inhibitors of S-ASM. This enzymatic, fluorescent screen uses an ASM enzyme preparation derived from human placenta and was tested against the NIH Molecular Libraries Small Molecule Repository (MLSMR). NIH Chemical Genomics Center [NCGC] NIH Molecular Libraries Probe Centers Network [MLPCN] MLPCN Grant: MH093173-01 Assay Submitter (PI): Alan Remaley, National Heart, Lung, and Blood Institute and Wei Zhen, NIH Chemical Genomics Center
Two microliters of ASM enzyme (1:150 dilution from stock) are dispensed in 1536-well plate. 23 nL of compound and control are pinned into assay plate using the Kalypsys pintool. The plates are then incubated for 10 minutes at ambient room temperature. Then, 2 uL of the flurogenic substrate, HMU-PC0, (9 uM final) are added to the plate. An incubation for 60 minutes takes place at 37 masculineC. After that, 4 uL of stop solution is added to raise the pH to 10 to end the kinetic reaction. Plate is read on ViewLux, with detection set at Ex = 386 (10) nm and Em = 447 (10) nm.
Potency means the concentration at half of the fitted maximal effect; tags describe the fitted curve by direction and shape.

Q: For C/C(=N\NS(=O)(=O)c1ccccc1)c1cccc(NC(=O)c2cccc(Cl)c2)c1, which Potency is on record?
A: inconclusive: 70.8 µM [inhibitor, partial curve, poor fit]

Q: For O=C(Nc1cc(C(F)(F)F)ccc1-n1cncn1)c1ccc(-c2ccccc2)cc1, which Potency is on record?
A: inconclusive: 501 µM [inhibitor, partial curve, poor fit]

Q: How did the Potency turn out when NC(=O)c1cc[n+](CC2=C(C(=O)O)N3C(=O)[C@@H](NC(=O)C(c4ccccc4)S(=O)(=O)[O-])[C@H]3SC2)cc1 (some centres undefined) was run?
A: inconclusive: 251 µM [inhibitor, partial curve, poor fit]

Q: With CCOC(=O)C1=C(C)N(c2ccc(OC)cc2)C(=O)/C1=C\c1ccc(O)c(OCC)c1 as the compound, how does the Potency read?
A: inconclusive: 200 µM [inhibitor, partial curve, poor fit]

Q: With CCCCCCC1CCC(C(=O)Nn2c(C)nc3ccccc3c2=O)CC1 (centres undefined) as the compound, how does the “activity change, negative = inhibition” value read?
A: inactive: -10.6%

Q: For CC(O)CN(CC(C)O)c1ccc2c(c1)Cc1cc([N+](=O)[O-])ccc1-2 (centres undefined), which Potency is on record?
A: inconclusive: 112 µM [inhibitor, partial curve, poor fit]

Q: With CCOc1ccc(N(C)S(=O)(=O)c2ccc(C)c(C(=O)NCCc3ccc(OC)cc3)c2)cc1 as the compound, how does the Potency read?
A: inconclusive: 70.8 µM [inhibitor, partial curve, poor fit]

Q: With COC(=O)c1cccc(NC(=O)Nc2ccc(Cl)c(Cl)c2)c1 as the compound, how does the Potency read?
A: inconclusive: 200 µM [inhibitor, partial curve, poor fit]

Q: Which “activity change, negative = inhibition” value does the source give for c1ccc(NC2=NCCN2CCCC2CCCCC2)cc1 here?
A: inactive: -2.22%

Q: Which Potency does the source give for CCOC(=O)c1c(C)n(C)c2ccc(OC(=O)c3ccco3)cc12 here?
A: inconclusive: 112 µM [inhibitor, partial curve, poor fit]

Q: How did the Potency turn out when COc1cc(OC)c(C(=O)Nc2ccc(C(=O)c3ccccc3)cc2)cc1OC was run?
A: inconclusive: 79.4 µM [inhibitor, single point]

Q: CCC(=O)NC(=S)Nc1cccc(NC(=O)c2ccc(Cl)cc2Cl)c1 was tested. Which Potency did it give?
A: inconclusive: 2510 µM [inhibitor, partial curve, poor fit]

Q: Cc1ccccc1CN1C(=O)/C(=C\c2ccc(C(=O)NCCN3CCOCC3)cc2)Sc2ccccc21 was tested. Which Potency did it give?
A: inconclusive: 282 µM [inhibitor, partial curve, poor fit]

Q: For O=C(Nc1ccsc1C(=O)NC1CCCCC1)c1ccc(F)cc1, which Potency is on record?
A: inconclusive: 501 µM [inhibitor, partial curve, poor fit]

Q: How did the Potency turn out when Cc1c(C(=O)N2CCN(CC(=O)Nc3ccccc3Cl)CC2)oc2ccc(Br)cc12 was run?
A: inconclusive: 447 µM [inhibitor, partial curve, poor fit]

Q: Cc1ccc(NC(CC(=O)c2ccccc2)c2ccc(F)cc2)cc1 (centres undefined) was tested. Which Potency did it give?
A: inconclusive: 282 µM [inhibitor, partial curve, poor fit]

Q: How did the Potency turn out when O=C(Nc1ccccc1C(=O)NCc1ccccc1)c1ccccc1 was run?
A: inconclusive: 316 µM [inhibitor, partial curve, poor fit]

Q: Which Potency does the source give for COc1cccc(O)c1CN1CCC(C(=O)Nc2ccc(-c3cccc(C)c3)cc2)CC1 here?
A: inconclusive: 112 µM [inhibitor, partial curve, poor fit]

Q: With COc1ccccc1-c1nn2c(C3COc4ccccc4O3)nnc2s1 (centres undefined) as the compound, how does the Potency read?
A: inconclusive: 89.1 µM [inhibitor, single point]

Q: Which “activity change, negative = inhibition” value does the source give for COc1ccc(-c2cc3c(=O)n(CC(=O)Nc4ccc(Cl)cc4)nc(C)n3n2)cc1 here?
A: inactive: -2.2%

Q: With COc1cc(-c2cc(OC)c3c(C)oc(C)c3c(=O)c2)ccc1O as the compound, how does the Potency read?
A: inconclusive: 126 µM [inhibitor, partial curve, poor fit]

Q: Cc1cc(C)nc(SCc2ccc(C(=O)N/N=C/c3cccc(O)c3O)cc2)n1 was tested. Which Potency did it give?
A: inconclusive: 89.1 µM [inhibitor, partial curve, poor fit]

Q: With COc1ccc(NC(=O)C23CC4CC(C2)CC(c2ccc(C)cc2)(C4)C3)cc1 as the compound, how does the Potency read?
A: inconclusive: 794 µM [inhibitor, partial curve, poor fit]

Q: Which “activity change, negative = inhibition” value does the source give for O=C(Oc1ccc(Cl)c2ccccc12)N1CCCCC1 here?
A: inactive: -3.74%

Q: CCN(Cc1ccccc1)S(=O)(=O)c1ccc(C(=O)N(CCCN(C)C)c2nc3cc(C)cc(C)c3s2)cc1 was tested. Which Potency did it give?
A: inconclusive: 100 µM [inhibitor, partial curve, poor fit]

Q: How did the Potency turn out when Cc1cc(N/N=C/c2ccc(Cl)cc2Cl)nc(NCc2ccccc2)n1 was run?
A: inconclusive: 70.8 µM [inhibitor, single point]

Q: For C=CCNCC(=O)Nc1sc2c(c1C(=O)Nc1ccc(OC)cc1OC)CCC2, which Potency is on record?
A: inconclusive: 224 µM [inhibitor, partial curve, poor fit]

Q: Which Potency does the source give for O=C(O)CCN1C(=O)/C(=C\c2ccc(OCc3ccccc3)c(OCc3ccccc3)c2)SC1=S here?
A: inconclusive: 56.2 µM [inhibitor, partial curve, poor fit]

Q: Which Potency does the source give for O=C(O)CSc1c(O)c2ccccc2[nH]c1=O here?
A: inconclusive: 17.8 µM [inhibitor, partial curve, poor fit]

Q: CCCCCCCCCCOC(=O)Cn1c(COc2ccc(C)cc2)[n+](C)c2ccccc21 was tested. Which Potency did it give?
A: inconclusive: 70.8 µM [inhibitor, partial curve, poor fit]

Q: Cc1cccc(N2CCN(C(=O)CCNS(=O)(=O)c3ccc4c(c3)oc(=O)n4C)CC2)c1C was tested. Which “activity change, negative = inhibition” value did it give?
A: inactive: -2.26%

Q: Cc1ccc(Cn2c(Sc3nnc(C)s3)nc3c2c(=O)[nH]c(=O)n3C)cc1 was tested. Which “activity change, negative = inhibition” value did it give?
A: inactive: 6.63%

Q: For CCOC(=O)c1ccc(N2C(=O)c3n[nH]c(-c4ccco4)c3C2c2ccc([N+](=O)[O-])cc2)cc1 (centres undefined), which Potency is on record?
A: inconclusive: 25.1 µM [inhibitor, partial curve, poor fit]

Q: Which Potency does the source give for CN(C)c1ccc(C(CNC(=O)c2ccccc2)c2c[nH]c3ccccc23)cc1 (centres undefined) here?
A: inconclusive: 200 µM [inhibitor, partial curve, poor fit]

Q: With C[C@@]12CCC=C[C@H]1[C@H](c1ccc(C(F)(F)F)cc1)N(Cc1ccccc1)C2=O as the compound, how does the Potency read?
A: inconclusive: 112 µM [inhibitor, partial curve, poor fit]

Q: Which “activity change, negative = inhibition” value does the source give for Cc1cccc(C)c1OCc1cc(C(=O)N(Cc2nccn2C)C(C)C)no1 here?
A: inactive: 2.11%

Q: With CCOc1ccc(N(C)c2ccc(/C=C3/SC(=S)NC3=O)cc2)cc1 as the compound, how does the Potency read?
A: inconclusive: 398 µM [inhibitor, partial curve, poor fit]

Q: With CC1=NN(c2ccc(C)c(C)c2)C(=O)C1C(c1cccc(O)c1)C1C(=O)N(c2ccc(C)c(C)c2)N=C1C (centres undefined) as the compound, how does the Potency read?
A: inconclusive: 794 µM [inhibitor, partial curve, poor fit]

Q: For Cn1cnc([N+](=O)[O-])c1Sc1nc(N)nc2c1ncn2C1CC(O)C(CO)O1 (centres undefined), which “activity change, negative = inhibition” value is on record?
A: inactive: 2.35%

Q: How did the “activity change, negative = inhibition” value turn out when Cc1cc(C)nc(Nc2ccc(Cl)cc2C)n1 was run?
A: inactive: -0.0967%

Q: For O=C(CSc1nnc(SCc2ccccc2)s1)NNC(=S)Nc1ccccc1, which Potency is on record?
A: inconclusive: 200 µM [inhibitor, partial curve, poor fit]

Q: How did the “activity change, negative = inhibition” value turn out when COc1ccccc1CC(=O)N1CCN(c2ccccc2)CC1 was run?
A: inactive: -1.93%

Q: For NNC(=O)CCn1c2ccccc2c2ccccc21, which “activity change, negative = inhibition” value is on record?
A: inactive: 0.671%

Q: Which Potency does the source give for COc1ccc(N2CCN(C(=O)CN3C(=O)NC(c4ccc(OC)cc4)(c4ccc(OC)cc4)C3=O)CC2)cc1 here?
A: inconclusive: 44.7 µM [inhibitor, partial curve, poor fit]

Q: COc1ccc(CCN2C(=O)c3[nH]nc(-c4ccccc4O)c3C2c2cccc(Cl)c2)cc1 (centres undefined) was tested. Which Potency did it give?
A: inconclusive: 89.1 µM [inhibitor, single point]

Q: How did the “activity change, negative = inhibition” value turn out when COc1ccc(CNC(=O)C2CCN(C(=O)[C@@H]3Cc4ccccc4CN3)CC2)cc1 was run?
A: inactive: 4.05%

Q: CCOC(=O)c1[nH]c2ccccc2c1NC(=O)c1ccc(S(=O)(=O)N2CCCCC2)cc1 was tested. Which “activity change, negative = inhibition” value did it give?
A: inactive: 18.7%

Q: Which Potency does the source give for C=CCN(C(=O)COC(=O)c1cc[n+]([O-])cc1)c1nc(-c2ccccc2)cs1 here?
A: inconclusive: 112 µM [inhibitor, partial curve, poor fit]

Q: Which “activity change, negative = inhibition” value does the source give for COc1nc(Nc2cccc(C)c2)nc(N2CCCCC2)n1 here?
A: inactive: -8.08%

Q: Which Potency does the source give for Cc1nn(-c2ccccn2)c2c1C(c1ccccc1Cl)C1=C(N2)c2ccccc2C1=O (centres undefined) here?
A: inconclusive: 562 µM [inhibitor, partial curve, poor fit]

Q: For CC(C)N(Cc1nc(-c2ccc(Cl)cc2)no1)C(=O)/C=C/c1ccccc1, which Potency is on record?
A: inconclusive: 100 µM [inhibitor, partial curve, poor fit]

Q: Which Potency does the source give for Cn1c(=O)c2c(nc(N/N=C/c3ccc(OC(=O)c4ccco4)cc3)n2Cc2ccccc2)n(C)c1=O here?
A: inconclusive: 79.4 µM [inhibitor, partial curve, poor fit]

Q: Which “activity change, negative = inhibition” value does the source give for CCOC(=O)c1ccc(NC(=O)CCS(=O)(=O)c2ccc(Br)s2)cc1 here?
A: inactive: -2.6%

Q: With COCCOc1ccc(C(F)(F)F)cc1NC(=O)COC(=O)Cc1c[nH]c2ccccc12 as the compound, how does the “activity change, negative = inhibition” value read?
A: inactive: -14%

Q: CN(CC(=O)Nc1cccc(F)c1)C(=O)c1cccc(S(=O)(=O)N2CCN(c3ccc(F)cc3)CC2)c1 was tested. Which Potency did it give?
A: inconclusive: 224 µM [inhibitor, partial curve, poor fit]

Q: COc1ccc(N=c2cc(-c3ccc(O)cc3)oc3ccccc23)cc1 was tested. Which “activity change, negative = inhibition” value did it give?
A: inactive: -5.65%

Q: How did the Potency turn out when O=c1[nH]c(C2CCCN(S(=O)(=O)c3ccc(F)cc3)C2)nc2c1nnn2Cc1ccc(F)cc1 (centres undefined) was run?
A: inconclusive: 200 µM [inhibitor, partial curve, poor fit]

Q: Which Potency does the source give for Cc1ccc([C@H]2C(C(=O)O)=CC[C@@H](c3ccc(C(C)C)cc3)N2S(=O)(=O)c2ccc(C)cc2)cc1 here?
A: inconclusive: 126 µM [inhibitor, partial curve, poor fit]

Q: CCS(=O)(=O)C1=NN2C(=N)/C(=C\c3ccc(OS(=O)(=O)c4ccccc4)cc3)C(=O)N=C2S1 was tested. Which Potency did it give?
A: inconclusive: 20 µM [inhibitor, partial curve, poor fit]
